# In article PMC4336329 (PLoS ONE, 2015):
# The campaign covered roughly 310,000 compounds. About 14,000 (4.5%) showed an effect of 50% or more. The effect is printed as a negative number. Some of the results follow.
# Biological target: human ether-à-go-go-related gene (hERG) potassium channel (human, UniProt Q12809)
# Assay: primary screen, population patch clamp on CHO cells stably expressing hERG
# 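Note: peak tail current of the secondary pulse compared with the same well before compound.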
# human ether-à-go-go-related gene (hERG) potassium channel, sequence (Q12809 whole entry, looked up): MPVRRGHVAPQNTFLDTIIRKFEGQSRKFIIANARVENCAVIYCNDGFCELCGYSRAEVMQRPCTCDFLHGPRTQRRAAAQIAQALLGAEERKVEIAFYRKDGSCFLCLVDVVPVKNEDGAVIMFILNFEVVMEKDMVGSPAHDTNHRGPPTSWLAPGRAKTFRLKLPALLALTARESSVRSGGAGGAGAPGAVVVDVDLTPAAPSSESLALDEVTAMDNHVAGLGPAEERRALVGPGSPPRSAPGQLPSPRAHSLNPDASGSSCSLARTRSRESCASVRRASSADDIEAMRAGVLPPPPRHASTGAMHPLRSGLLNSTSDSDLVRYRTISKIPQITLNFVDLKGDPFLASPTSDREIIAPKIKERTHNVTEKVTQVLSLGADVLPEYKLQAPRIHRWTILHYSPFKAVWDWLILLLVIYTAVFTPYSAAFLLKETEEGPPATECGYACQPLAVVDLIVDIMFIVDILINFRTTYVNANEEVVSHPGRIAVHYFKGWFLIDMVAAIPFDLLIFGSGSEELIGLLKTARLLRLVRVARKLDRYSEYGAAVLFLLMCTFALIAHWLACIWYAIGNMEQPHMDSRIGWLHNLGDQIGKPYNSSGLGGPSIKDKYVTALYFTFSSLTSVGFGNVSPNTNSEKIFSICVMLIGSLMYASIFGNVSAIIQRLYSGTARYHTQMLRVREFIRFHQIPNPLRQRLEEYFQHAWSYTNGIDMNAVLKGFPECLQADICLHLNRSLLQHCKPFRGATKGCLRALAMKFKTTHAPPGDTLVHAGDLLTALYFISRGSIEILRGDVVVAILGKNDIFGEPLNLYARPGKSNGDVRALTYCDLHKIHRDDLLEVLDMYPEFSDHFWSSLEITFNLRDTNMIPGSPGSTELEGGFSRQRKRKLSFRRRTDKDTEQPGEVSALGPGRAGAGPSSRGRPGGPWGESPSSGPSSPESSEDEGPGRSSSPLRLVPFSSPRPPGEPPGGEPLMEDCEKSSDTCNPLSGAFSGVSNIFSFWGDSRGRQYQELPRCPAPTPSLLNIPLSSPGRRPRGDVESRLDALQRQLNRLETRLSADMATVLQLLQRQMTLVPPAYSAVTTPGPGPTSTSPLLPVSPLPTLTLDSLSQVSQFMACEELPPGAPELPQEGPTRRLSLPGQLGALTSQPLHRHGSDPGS
row,SMILES,"hERG current change (%, negative = inhibition) at 10uM [%]"
1,O=C(NCCCCCCNC(=O)C1CCCC1)C1CCCC1,5.1
2,CCOC(=O)N1CCN(c2cc(=O)n(-c3ccc(OCC)cc3)c(=O)[nH]2)CC1,14
3,CCN(CC)S(=O)(=O)c1cccc(-c2cn3cc(C)ccc3n2)c1,-9.87
4,COc1ccc(Nc2nc(N)c([N+](=O)[O-])c(N3CCOCC3)n2)cc1,-16.7
5,NC(=O)N1CC(O)CC1C(=O)Nc1ccc(Cl)c(Cl)c1 (centres unmarked),13.1
6,Cc1cc(C)c2[nH]c(=O)c(C(c3nnnn3Cc3ccc4c(c3)OCO4)N3CCC(C)CC3)cc2c1 (centres unmarked),5.35
7,COc1ccc(C(=S)N2CCN(c3cccc(Cl)c3)CC2)cc1,-6.11
8,CCCC(=O)Oc1ccccc1C1SCc2cc(C)c(C)cc2CS1,5.12
9,COc1ccc(OC)c(/C=C/C(=O)NCCc2nc3ccccc3[nH]2)c1,-22.7
10,CCN(Cc1ccccc1)C(=O)CCS(=O)(=O)c1ccc2c(c1)CCN2C(C)=O,1.14
11,OCc1ccccc1CN1CCCCCC1,-9.62
12,CCOc1ccc(NC(=O)Nc2cccc(C(=O)O)c2)cc1,11
13,COc1ccc(C(=O)NCc2c(C)oc(C)c2C(=O)O)cc1,25.7
14,COc1ccc(CCNC(=O)CC2SC(=NCc3ccccc3)NC2=O)cc1 (centres unmarked),-16.2
15,Fc1ccc(-c2cn(-c3ccccc3)c3[n+]2CCS3)cc1.O.[Br-],-45.3
16,CC(C#N)(Nc1ccc(Cl)cc1)c1cccnc1 (centres unmarked),-0.628
17,Nc1ccc(-n2nnnc2-c2ccco2)cc1,9.11
18,CC(C)[C@H](NC(=O)N1CC(=O)Nc2ccccc21)C(=O)N[C@H](Cc1c[nH]c2ccccc12)C(=O)O,4.53
19,COc1ccc(-c2[nH]c(-c3cccc(OC)c3)nc2SCC(=O)NCc2ccco2)cc1,-19.2
20,COc1ccccc1NC(=O)CCN1CCN(C)CC1,24.8
21,Cc1nc2c(=O)n(C)c(=O)nc-2n(C)n1,-0.848
22,CN(C)c1ccc(/C=C/C(=O)c2ccc3c(c2)OCCO3)cc1[N+](=O)[O-],-1.04
23,Cc1ccc(C(C(=O)NC2CCCC2)N(Cc2ccco2)C(=O)CCC(=O)Nc2ccccn2)cc1 (centres unmarked),-40.1

row,SMILES,"hERG current change (%, negative = inhibition) at 10uM [%]"
1,O=C(Nc1ccc2c(c1)CCC2)c1cc(F)cc(F)c1,11.4
2,CCC(=O)N1N=C(c2ccccc2)CC1c1ccc([N+](=O)[O-])cc1 (centres unmarked),-53.4
3,COc1ccc(OCCCC(=O)N(CCC2=CCCCC2)c2c(N)n(Cc3ccccc3)c(=O)[nH]c2=O)cc1,17.4
4,COc1ccccc1NC(=O)c1cc(C(=O)Nc2ccccc2OC)cc([N+](=O)[O-])c1,21.1
5,CC1CCN(C(=O)c2cc(S(=O)(=O)N3CCOCC3)ccc2N2CCCC2)CC1,-5.33
6,Cc1cccc(N(CC(=O)Nc2cccnc2)S(C)(=O)=O)c1,-0.187
7,Cc1ccc(NC(=S)N2CCOCC2)c(C)c1,19.4
8,CC(C)(C)NC(=O)C1CCC(CNc2c(N3CCCCC3)c(=O)c2=O)CC1 (centres unmarked),6.41
9,COc1ccc(OCC(=O)Nc2ccc(S(=O)(=O)Nc3cc(C)on3)cc2)cc1,-0.907
10,O=C(NCc1ccc2c(c1)OCO2)c1nc(S(=O)(=O)Cc2ccccc2F)ncc1Cl,1.45
11,COc1cc(C(=O)Nc2ccc3c(c2)OCCO3)ccc1OC(F)F,-5.02
12,O=C(COc1ccc(Cl)cc1)N1CCN(C(=O)c2cccc(F)c2)CC1,-58.5
13,CC(C(=O)N1CCc2ccccc21)N1CCN(c2ccccn2)CC1 (centres unmarked),-6.29
14,O=C(c1ccco1)N1CCN(c2ncnc3c(-c4ccc(Cl)cc4)nsc23)CC1,4.82
15,CC(C)c1ccc(NC(=O)COc2ccccc2)cc1,-0.635
16,CC(=O)Nc1ccc2nc(-c3cccn3C)[nH]c2c1,12.8
17,CCN(CC)S(=O)(=O)c1ccc(OC(C)C)c(NC(=O)C2=COCCO2)c1,-42.5
18,Cc1cccc(Cn2cnc3c(sc4nc(C)cc(C)c43)c2=O)c1,-4.64
19,Cc1ccsc1/C=N/NS(=O)(=O)c1ccc([N+](=O)[O-])cc1,8.62
20,c1cncc(-c2csc(NCc3ccco3)n2)c1,-2.28
21,CCn1c(C(O)c2ccc3c(c2)OCO3)nc2ccccc21 (centres unmarked),-2.47
22,O=C(O)c1cccnc1C(=O)O,11.9
23,CC(C)(C)c1ccc(C(=O)Nc2cccc3c(=O)[nH][nH]c(=O)c23)cc1,-9.65

row,SMILES,"hERG current change (%, negative = inhibition) at 10uM [%]"
1,CCOC(=O)CSC1=NN2CCS(=O)(=O)N=C2S1,14.8
2,O=C(COc1cc([N+](=O)[O-])cc2cccnc12)NCCC1=CCCCC1,-46.5
3,Cc1ccn2c(NC(=O)c3ccco3)c(-c3ccccc3)nc2c1,-23.7
4,O=C(Nc1cccc(-c2nc3ccccc3s2)c1)C1=COCCO1,8.33
5,Cc1nn(C)c2ncc(C(N)=O)c(Oc3cccnc3)c12,5.37
6,COC(=O)C1CCN(C(=O)COC(=O)CNS(=O)(=O)c2ccc(SC)c([N+](=O)[O-])c2)CC1,-21.9
7,Cc1nc2nc(SCC(=O)NCCCN3CCCCCC3)nn2c(C)c1Cc1ccccc1,-16.5
8,COc1cccc(NC(=O)NCc2ccccn2)c1,11.3
9,Cc1ccc(-n2c(Cc3cccn3C)nnc2SCC(=O)N2CCN(c3ccccc3)CC2)cc1,-8.15
10,COc1ccc(CCNC(=O)CCNC(=O)c2ccc([N+](=O)[O-])cc2)cc1,-3.9
11,Cc1cc(C)c(NC(=O)CCCSc2nnc(N)s2)c(C)c1,-14.8
12,Cc1c(C(=O)OCC(=O)NCCN2C(=O)CSC2=O)cccc1[N+](=O)[O-],-25
13,CN(C)c1ccnc(N(Cc2ccccc2)Cc2ccccc2)c1C#N.Cl,-6.74
14,Cc1ccc(NC(=O)CSc2nc3ccccc3nc2N2CCCC2)cc1,-7.28
15,Cn1c(CCNC(=O)c2ccccc2)nc2ccccc21,-8.6
16,COc1ccc(CCNC(=O)CN2CCN(c3cccc(Cl)c3)CC2)cc1OC,-18.1
17,CCCCn1c(N)c(NCCC(C)C)c(=O)[nH]c1=O,-5.59
18,CCOC(=O)CNC(=S)N(Cc1ccc(C)cc1)Cc1ccc(C)o1,-37.8
19,CC(=O)Nc1ccc(NC(=O)C2CCCN2C(=O)Nc2ccc(F)c([N+](=O)[O-])c2)cc1 (centres unmarked),-1.17
20,CC(C)NC(=O)Nc1cccs1,-3.62
21,Cc1nn(CC(=O)NCCCN2CCCCC2)c(=O)c2cccn12,19.5
22,CCCN(Cc1ccc(C)cc1)C(=O)c1ccc(CNS(=O)(=O)c2ccc(C(C)=O)cc2)cc1,8.56
23,COc1cc(NC(=O)c2ccc(=O)[nH]n2)cc(OC)c1OC,16.4

row,SMILES,"hERG current change (%, negative = inhibition) at 10uM [%]"
1,CCOC(=O)c1sc(=NC(=O)c2ccc(Cl)s2)n(C)c1C,6.74
2,CCn1c(SCC(=O)NC2CCCCC2)nnc1C(CO)NC(=O)c1ccccc1 (centres unmarked),16.9
3,CN(c1ccc(OCC(=O)NC2=NCCS2)cc1)S(=O)(=O)c1ccc(F)cc1,-2.78
4,NC(=O)c1cc2cc(Cl)ccc2o/c1=N/NC(=O)c1cccs1,-11.8
5,O=C(CN1CCN(Cc2cccc3ccccc23)CC1)NCCc1ccccc1,-26
6,CCCCCn1c(SC(C)C(C)=O)nc2c1c(=O)[nH]c(=O)n2C (centres unmarked),-92.5
7,Cc1cc(C)nc(N/N=C/C2=C(N3CCOCC3)C(=C\c3ccc(Cl)cc3)/CC2)n1.Cl,-31.4
8,O=C(CCn1c2c(c3ccccc31)CCCC2)NNC(=O)c1ccccc1[N+](=O)[O-],-16.9
9,CCOc1ccc(NC(=O)CN(C)C(=O)CC2CCCC2)cc1OCC,2.43
10,O=C(CSc1cc(Cl)ccc1Cl)NC1CCCc2ccccc21 (centres unmarked),20.9
11,CCN(CC(=O)Nc1ccccc1OC)C(=O)CN1C(=O)NC(C)(c2ccc(C)cc2)C1=O (centres unmarked),-14.2
12,O=C(CN1CCN(S(=O)(=O)c2ccc(Br)cc2)CC1)Nc1ccccc1F,-62.5
13,c1ccc(CN2CCN(Cc3nnc(-c4ccccc4)o3)CC2)cc1,-22.1
14,O=C(O)Cn1nc(-c2ccccc2)cc1-c1ccccc1,13.9
15,CSc1cc(-c2ccccc2)n(Cc2ccc(Cl)cc2Cl)c(=O)c1C#N,1.66
16,CCOC(=O)c1cnc2ccc(OCC)cc2c1NCCN1CCOCC1.Cl,-67.9
17,COc1ccc(NC(=S)NCCCN2CCCC2)cc1,5.95
18,O=c1cc(N2CCc3ccccc32)[nH]c(=O)n1Cc1ccc(F)cc1,9.46
19,COc1ccc(S(=O)(=O)NCC2CCCO2)cc1NC(=O)c1ccccc1F (centres unmarked),19.1
20,Cc1ccc(N(C(=O)CNC(=O)c2ccco2)C(C(=O)NC2CCCC2)c2ccncc2)c(C)c1 (centres unmarked),14.6
